# Assay results as given in the supplement of paper PMC3334620.
# Whole data set: some 33,000 sequences, median “E-score (-0.5 to 0.5)” near -0.013, cut for the highest 2% near 0.3. The list shows a part of the results.
# Molecular target: T1, Msn1 (UniProt P22148)
# T1 sequence: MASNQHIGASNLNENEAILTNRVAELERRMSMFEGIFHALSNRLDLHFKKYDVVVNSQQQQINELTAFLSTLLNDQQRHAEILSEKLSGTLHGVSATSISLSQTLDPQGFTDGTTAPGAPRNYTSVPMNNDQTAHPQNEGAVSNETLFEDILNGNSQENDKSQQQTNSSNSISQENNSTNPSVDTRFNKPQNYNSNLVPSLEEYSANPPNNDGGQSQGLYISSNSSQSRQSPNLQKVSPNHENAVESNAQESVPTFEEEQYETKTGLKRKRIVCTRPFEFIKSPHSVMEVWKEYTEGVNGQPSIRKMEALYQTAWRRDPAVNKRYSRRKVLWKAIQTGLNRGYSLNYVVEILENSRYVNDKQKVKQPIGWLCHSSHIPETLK
# Experiment: PBM E-score (8-mer binding enrichment) (E-score (-0.5 to 0.5)); higher = stronger / more preferred TF binding; most listed sequences are background and not binding sites
# Details: protein concentration: 200 nM; construct: GST-full length
# Method in brief: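 Yeast transcription factors, full-length or as DNA-binding domains, were expressed with a GST tag using PURExpress in vitro transcription/translation. At about 100-200 nM they were applied to universal all-10-mer Agilent arrays, double-stranded by primer extension on fresh or once-stripped slides. Fluorescent anti-GST detected bound protein, and masliner normalised the scans. E-scores for ungapped eight-base words, pooled with reverse complements, came from the Universal PBM Analysis Suite.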
row,Sequence,PBM E-score
1,CGGAACCG,0.0482
2,CGTAACCA,-0.00232
3,CCTTCCCC,-0.246
4,CGCATGTC,0.426
5,GATACATA,0.152
6,CACGAGAG,-0.22
7,AATGGGAT,-0.125
8,CTAATCTC,-0.0562
9,TCAGCTAA,-0.0447
10,GACCTGAA,-0.00534
11,CGCGCGAG,-0.07
12,AGAACAAA,0.303
13,CAGCTAGC,-0.19
14,AAAGTGGG,-0.024
15,AATTATAT,0.138
16,AATGGACT,0.19
17,CTGACTGA,-0.227
18,CGGTTTAC,-0.155
19,TTTAGAAA,0.0834
20,CGATCTCC,0.00678
21,AGTCCTGA,0.242
22,GCTCTATA,-0.228
23,GATCATGC,-0.168
24,GTTCCAAA,0.12
25,CTAGGGTA,-0.203

row,Sequence,PBM E-score
1,ACCTCGAC,-0.00429
2,AATAGCAG,-0.153
3,AATCGGTG,-0.0473
4,ATTCTATC,0.121
5,AGGACACC,0.255
6,ACCGCTGA,-0.0555
7,GGCATATA,0.219
8,AGGTGGGA,-0.233
9,AATAAACA,0.188
10,ACGTTGTG,0.00695
11,CGGCGACA,0.0783
12,AATGGGAG,-0.106
13,GACTCCGA,-0.0831
14,GAGAAATC,0.19
15,ACGTCTCC,-0.128
16,CCAAACGC,-0.0457
17,TGGGTAAA,0.113
18,TAAAAACA,0.144
19,ACCCGATG,0.112
20,GCACAGCC,-0.194
21,ATCTTTGA,-0.0173
22,GCCGACAA,0.117
23,AAGCCCGT,-0.386
24,AAGACTAG,-0.194
25,GTCTTGAA,0.2

row,Sequence,PBM E-score
1,CTTCAGCA,-0.169
2,CGGATTCC,-0.0354
3,AGGTAACC,-0.229
4,ACACCAAA,0.226
5,GCTGGAAC,-0.316
6,GCACGTGC,0.114
7,AAAACAAA,0.215
8,CGTCACGC,0.011
9,CCCGATCC,-0.209
10,GCATTTAC,0.0372
11,AATAGTTG,0.107
12,GAGGGCGA,-0.355
13,CTGATTCC,-0.166
14,CAGAGGTC,-0.121
15,CACGCCAC,-0.127
16,AAGCACGA,-0.0347
17,GGGAAAAA,0.185
18,AGCCCACC,-0.321
19,ACATTGAT,0.19
20,AGTTGCCC,0.0155
21,AGGAAGTC,-0.0428
22,AAGGCAAG,-0.145
23,GCCCGACC,-0.247
24,AGTAATGA,0.0598
25,CGCGCCTC,-0.0849

row,Sequence,PBM E-score
1,AGTAGATA,0.194
2,AAGTCAGT,0.112
3,CGAGGAGA,-0.141
4,ACAGCGCG,0.0332
5,ATCTGTGC,-0.047
6,AGAGTGAA,0.138
7,AGAGGCGC,-0.17
8,ACGACCAC,-0.172
9,GGCTAGAA,0.0779
10,ACGCCCCT,-0.243
11,ACGTTCCT,-0.0236
12,CTAACAAG,-0.00205
13,GGAATACA,0.136
14,ACCAAGAG,-0.0524
15,CGGCGCCC,-0.167
16,ATCGGGGA,0.0821
17,AGCGGATA,-0.0754
18,CGGCTCTC,-0.179
19,GAGCTCAA,0.097
20,CTTTGGGA,0.00966
21,AGGATCCT,-0.162
22,CTGTACAG,0.0843
23,CCCCACAA,0.0582
24,ATGCTTGC,-0.0773
25,ACATTACG,0.221

row,Sequence,PBM E-score
1,CGAAGCTA,0.0736
2,GCAACAAA,0.165
3,CGCCTCTA,-0.0484
4,CCGACAGA,0.0804
5,GCGCTTCA,-0.0683
6,AAGACCAA,-0.139
7,AAGGGGCG,-0.231
8,GAGACTGC,-0.0722
9,TCGTGTCA,0.138
10,ACTGATTA,0.0723
11,CCCTGCGC,-0.169
12,AAACTATG,-0.0995
13,ACGTTAAA,0.15
14,CCACGTAG,-0.299
15,CGTTAAAG,-0.00103
16,CGTGCTTC,-0.0761
17,AACTTATC,0.0748
18,ATCACCCC,-0.116
19,AGCCCAGA,-0.108
20,CTAAAAAC,0.0761
21,CCTAGCCG,-0.114
22,GCGCGTCC,0.161
23,GAGGTTCA,0.0372
24,ACAACAGA,0.0792
25,TACCCGAA,-0.0563

row,Sequence,PBM E-score
1,CGCACCTA,-0.249
2,ACATATCG,0.231
3,CGTACTTC,0.006
4,ATAGGCAG,0.0587
5,AAACCGAT,-0.0421
6,CAGCGGCC,-0.146
7,GCGGCTCA,-0.112
8,ATGTGGTG,-0.111
9,CGTTATAG,0.0295
10,CATTTCTC,0.165
11,TGAGAAAA,0.00862
12,GCACTGCC,-0.0902
13,AACCCCCA,-0.304
14,AAGTGCGG,0.0388
15,CCATTGTC,0.311
16,GCCAGTAA,-0.185
17,ACATGTTC,0.147
18,ACAATAGA,0.243
19,ATTGGGGG,-0.304
20,AGCCGTAG,-0.125
21,GGCCGGCA,0.142
22,TGACCACA,-0.0111
23,CGATAGAG,-0.0437
24,CGCACTCA,0.00606
25,ATTCCAAA,0.155

row,Sequence,PBM E-score
1,AAACATAG,-0.131
2,ACTTCTAG,-0.344
3,CTCCCACC,-0.384
4,GAGGCCGA,-0.142
5,CGTCAGGC,-0.117
6,GATGCCAA,-0.118
7,CGTGCTCA,-0.00047
8,CCACGACG,-0.154
9,GCGTACGA,-0.0483
10,TAATAGGA,0.139
11,ACTTTATG,0.161
12,CGTCTAGA,-0.0164
13,AATTGTGC,0.0159
14,CGGCCGCC,-0.155
15,CCTATCGA,0.0692
16,ATAAGTAT,0.0424
17,CCGCTCCC,-0.267
18,AGACTCAC,-0.068
19,ATATCTAG,-0.0675
20,CTTCGTTA,-0.0607
21,CAGGTTAG,-0.221
22,TCTTTAAA,0.234
